These results are taken from PubChem BioAssay (NCATS).

For orientation: IC50 means the midpoint of a concentration-inhibition curve. As a reminder, the AC50 is the concentration at which the activity in the assay is half-maximal.

Experiment [1] deals with Catechol O-methyltransferase (Homo sapiens) (UniProt P21964). Nature of the experiment: Confirmatory Screen for Target Class Profiling of Small Molecule Inhibitors of Methyltransferases (AID 1745852).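 Also: inhibitor potency for blocking SAH production.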 As to conditions: MTase-Glo luminescence, SAH detection, recombinant enzyme; measured here: COMT inhibition potency.
Experiment [2] addresses Histamine N-methyltransferase (Homo sapiens) (UniProt P50135). The description is as above. As to conditions: MTase-Glo luminescence, SAH detection, recombinant enzyme; measured here: HNMT inhibition potency.
In experiment [3] the target is Nicotinamide N-methyltransferase (Homo sapiens) (UniProt P40261). The experiment is described as above. The following applies: MTase-Glo luminescence, SAH detection, recombinant enzyme; measured here: NNMT inhibition potency.
The target in experiment [4] is Phenylethanolamine N-methyltransferase (Homo sapiens) (UniProt P11086). The description is as above. The following applies: MTase-Glo luminescence, SAH detection, recombinant enzyme; measured here: PNMT inhibition potency.
Experiment [5] in a line: qHTS drug screen for cell cycle checkpoint inhibitors in PARPi-resistant BRCA-mutant ovarian cancer cell lines. (AID 1963452). As to conditions: PEO1/OlaR viability, CellTiter-Glo luminescence, 96 h; measured here: PEO4 viability. The procedure, abridged: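 PEO1, PEO4 and PEO1/OlaR ovarian cancer cells, 600 per well, exposed 96 h at 37C to a dilution series. Viability read by CellTiter-Glo luminescence, normalized to DMSO and empty wells; activity summarized as Z-AUC.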

Some of the results follow. The main result of the screen is listed elsewhere. These columns were measured beside it and carry no call. For some of these results: Most of these compounds were active or inconclusive in the main read-out, so they are no random draw. Potencies come from curve fits of mixed quality, noted in brackets.
Tags tell the direction and shape of the fitted curve.

UniProt P21964, sequence (P21964 whole entry, looked up): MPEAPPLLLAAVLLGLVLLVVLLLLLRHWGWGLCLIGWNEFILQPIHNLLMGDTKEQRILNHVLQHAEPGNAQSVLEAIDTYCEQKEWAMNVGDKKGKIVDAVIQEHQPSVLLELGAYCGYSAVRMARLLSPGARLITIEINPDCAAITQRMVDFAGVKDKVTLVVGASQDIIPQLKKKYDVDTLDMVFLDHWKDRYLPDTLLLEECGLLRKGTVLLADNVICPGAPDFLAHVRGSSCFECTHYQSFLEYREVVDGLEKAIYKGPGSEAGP
UniProt P50135, sequence (P50135 whole entry, looked up): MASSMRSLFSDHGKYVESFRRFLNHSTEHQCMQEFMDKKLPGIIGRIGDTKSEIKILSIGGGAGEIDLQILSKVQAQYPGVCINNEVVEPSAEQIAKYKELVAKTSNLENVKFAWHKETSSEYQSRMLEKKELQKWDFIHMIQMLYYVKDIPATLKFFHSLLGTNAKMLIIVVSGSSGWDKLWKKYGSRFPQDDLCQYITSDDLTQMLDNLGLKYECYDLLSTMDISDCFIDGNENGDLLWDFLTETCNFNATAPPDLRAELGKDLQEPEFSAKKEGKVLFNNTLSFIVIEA
UniProt P11086, sequence (P11086 whole entry, looked up): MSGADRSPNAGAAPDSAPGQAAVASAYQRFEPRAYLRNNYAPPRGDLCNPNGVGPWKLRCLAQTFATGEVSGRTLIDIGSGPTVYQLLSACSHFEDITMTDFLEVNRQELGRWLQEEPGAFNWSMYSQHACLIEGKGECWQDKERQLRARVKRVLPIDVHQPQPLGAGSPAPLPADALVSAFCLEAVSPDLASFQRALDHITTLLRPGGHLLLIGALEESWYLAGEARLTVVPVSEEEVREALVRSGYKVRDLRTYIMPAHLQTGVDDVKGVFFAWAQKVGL
UniProt P40261, sequence (P40261 whole entry, looked up): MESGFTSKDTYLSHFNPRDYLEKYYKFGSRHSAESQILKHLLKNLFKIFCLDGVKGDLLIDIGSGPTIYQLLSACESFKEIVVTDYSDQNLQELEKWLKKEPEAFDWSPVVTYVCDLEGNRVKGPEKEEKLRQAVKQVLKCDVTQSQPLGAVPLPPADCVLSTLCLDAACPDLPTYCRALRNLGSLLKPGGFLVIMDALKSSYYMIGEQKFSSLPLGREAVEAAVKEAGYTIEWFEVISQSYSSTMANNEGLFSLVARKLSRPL

Consider `O=c1cc(O)cc(/C=C\c2ccc(O)c(O)c2)o1`, for which the IC50 was 1.72 µM [rising, full curve] in experiment [1] and 21.7 µM [falling, single point] in experiment [2].

On to `O=C(NCc1ccc2c(c1)OCO2)c1sc(=S)n2c1[nH]c(=O)c1ccc(Cl)cc12`, for which the half-inhibitory concentration (IC50) in experiment [1] is 21.5 µM [falling, partial curve]; in experiment [2], 21.5 µM [falling, partial curve]; in experiment [3] it was 21.5 µM [falling, partial curve]; in experiment [4] it was 21.5 µM [falling, partial curve].

On to `O=C1c2ccccc2-c2nc3nnnn3nc21` (tested in a mixture with another compound), for which the half-inhibitory concentration (IC50) in experiment [1] is 0.215 µM [falling, full curve]; in experiment [2] it was 1.21 µM [falling, full curve]; in experiment [3] it was 0.961 µM [falling, full curve]; in experiment [4], 0.0681 µM [falling, full curve].

Turning to `O=C(Nc1ccc2ncnc(N3CCCCC3)c2c1)c1cc(F)ccc1F`, the IC50 was 17.1 µM [falling, partial curve] in experiment [1]; 19.2 µM [falling, partial curve] in experiment [2]; 21.5 µM [falling, partial curve] in experiment [3]; 15.2 µM [falling, partial curve] in experiment [4].

Regarding `C=Cc1cc(O)cc2nc(-c3ccc(O)c(F)c3)oc12`, the half-maximal inhibitory concentration (IC50) is 24.1 µM [falling, partial curve] in experiment [1]; 27.1 µM [falling, partial curve] in experiment [2]; 27.1 µM [falling, single point] in experiment [3]; 27.1 µM [falling, partial curve] in experiment [4]. Also, the AC50 in experiment [5] is 8.71 µM [falling, partial curve].
